# PubChem BioAssay AID1460 (National Center for Advancing Translational Sciences (NCATS), 2008)
# In all, about 270,000 compounds went through this assay and about 5,800 (2.1%) were called active. This list was built around the results that the source calls inconclusive (neither active nor inactive); the mix of calls is not that of the screen. The call rests on the fitted dose curve; in most records, active means well fitted inhibition curve with a large enough effect; inconclusive means small, poorly fitted or top-dose-only effect; inactive means flat fitted curve, though single readings scatter. Potencies beside an inconclusive call are fits to weak or partial responses and may not hold up.
# Molecular target: Microtubule-associated protein tau (Homo sapiens) (UniProt P10636)
# Chain of UniProt P10636 (P10636 whole entry, looked up): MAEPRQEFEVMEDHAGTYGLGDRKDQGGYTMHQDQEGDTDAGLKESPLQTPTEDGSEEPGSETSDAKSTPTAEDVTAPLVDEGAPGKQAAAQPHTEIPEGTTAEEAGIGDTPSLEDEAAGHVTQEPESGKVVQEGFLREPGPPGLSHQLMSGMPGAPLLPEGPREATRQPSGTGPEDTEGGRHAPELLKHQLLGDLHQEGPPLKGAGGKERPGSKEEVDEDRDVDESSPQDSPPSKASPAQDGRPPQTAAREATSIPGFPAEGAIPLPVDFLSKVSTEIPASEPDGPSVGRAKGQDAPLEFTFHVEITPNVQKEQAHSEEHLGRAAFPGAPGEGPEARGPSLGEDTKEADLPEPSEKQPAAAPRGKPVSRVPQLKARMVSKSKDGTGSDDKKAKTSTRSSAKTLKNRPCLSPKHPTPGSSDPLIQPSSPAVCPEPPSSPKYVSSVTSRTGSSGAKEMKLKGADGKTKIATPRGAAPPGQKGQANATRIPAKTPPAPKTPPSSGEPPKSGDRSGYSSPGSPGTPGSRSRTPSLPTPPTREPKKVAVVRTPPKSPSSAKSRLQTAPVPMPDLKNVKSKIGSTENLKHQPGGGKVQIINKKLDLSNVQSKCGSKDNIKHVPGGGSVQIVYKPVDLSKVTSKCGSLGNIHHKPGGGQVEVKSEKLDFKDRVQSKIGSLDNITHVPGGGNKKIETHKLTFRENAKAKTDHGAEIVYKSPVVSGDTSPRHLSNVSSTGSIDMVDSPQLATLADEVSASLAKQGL
# Assay: qHTS for Inhibitors of Tau Fibril Formation, Thioflavin T Binding; further: nearly all actives have a fitted effect of over 55% in size
# Conditions: recombinant tau K18 P301L, heparin-induced fibrillization, ThT fluorescence; series mostly up to 57.4 µM
# In short: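 Using a mix of unlabeled (15 uM) and Alexa 594-labeled (0.24 uM) tau K18 P301L, heparin-triggered fibrillization over 6 hr at 37 C was scored by ThT fluorescence.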
# Potency means the concentration at half of the fitted maximal effect; tags describe the fitted curve by direction and shape.
row,Compound,Potency
1,Oc1ccc(N=C/C=C/c2cccc(Br)c2)cc1-c1nc2ccccc2s1,active: 6.31 µM
2,CC(C)Nc1nc(NC(C)C)nc(C(=O)OCCO)n1,inactive
3,Cc1ccc(SC[C@H](Cc2ccccc2)N2CCN(C)CCC2=O)cc1,"inconclusive: 0.0891 µM [activator, full curve, poor fit]"
4,COc1ccc2sc(N(Cc3cccnc3)C(=O)c3cccs3)nc2c1,inactive
5,Cc1nn(-c2ccccc2)c(N2CCCC2)c1/C=N/NC(=S)Nc1ccccc1C(F)(F)F,"inconclusive: 20 µM [inhibitor, single point]"
6,CC(=O)c1c(C)[nH]c(C(=O)COc2cc(C)cc(C)c2)c1C,inactive
7,CCCCn1nnnc1SCC(=O)Nc1ccc(N(C)C)cc1,"inconclusive: 31.6 µM [inhibitor, single point]"
8,CCOc1ccc(NC(=O)Nc2ccc3nsnc3c2)cc1,active: 14.1 µM
9,CCC/C=C(\CCC)C(NP(=O)(c1ccccc1)c1ccccc1)c1ccc(C(F)(F)F)cc1 (configuration not stated),inactive
10,COc1cc(/C=N/NC(N)=O)cc(Br)c1OCc1ccc(C)cc1,"inconclusive: 11.2 µM [inhibitor, partial curve]"
11,Cn1c(OCc2ccco2)nc2c1c(=O)n(Cc1ccc(Cl)c(Cl)c1)c(=O)n2C,"inconclusive: 25.1 µM [inhibitor, single point]"
12,CCOC(=O)C1CCCN(C(=O)Cn2ncc3c(C)n(Cc4ccc(F)cc4)c(C)c3c2=O)C1 (configuration not stated),inactive
13,N=C(N)SCCc1ccc(OCc2ccc([N+](=O)[O-])cc2)cc1,"inconclusive: 11.2 µM [inhibitor, partial curve]"
14,[N-]=C=C1C(=S)NC(=O)[C@H]([n+]2ccccc2)[C@H]1c1ccc(Cl)cc1,"inconclusive: 15.8 µM [inhibitor, partial curve, poor fit]"
15,N#Cc1c(Nc2ccc(F)cc2)sc(C(=O)c2ccccc2)c1N,inactive
16,O=C(Nc1ccc2nc(SCCOc3ccccc3Cl)sc2c1)c1ccco1,inactive
17,O=c1oc2c(CN3CCCCC3)c(O)ccc2cc1-c1nc2ccccc2[nH]1,"inconclusive: 1.26 µM [activator, full curve]"
18,C=CCO/N=C(/C)c1c(O)c(CC)c(-c2ccccc2)n(-c2ccccc2)c1=O,"inconclusive: 20 µM [inhibitor, partial curve]"
19,CSc1ccc(NC(=O)NCCCN2CCN(c3ccccc3F)CC2)cc1,"inconclusive: 28.2 µM [inhibitor, single point]"
20,Cc1nc(NS(=O)(=O)c2ccccc2)sc1NC(=O)Nc1ccccc1,inactive
21,CC(=O)Nc1sc2c(c1C(c1cccc(Cl)c1)N1CCN(CCO)CC1)CCCC2 (configuration not stated),"inconclusive: 25.1 µM [inhibitor, single point]"
22,COC(=O)Cc1n[nH]c(=S)[nH]c1=O,"inconclusive: 15.8 µM [inhibitor, partial curve, poor fit]"
23,Cc1cccc(NC(=S)NC(=O)c2cccs2)n1,"inconclusive: 22.4 µM [inhibitor, single point]"

row,Compound,Potency
1,COc1ccc(-c2ccc(-c3noc(-c4cc(OC)cc(OC)c4)n3)c(OC)n2)cc1,"inconclusive: 1.12 µM [inhibitor, full curve, poor fit]"
2,Cc1ccc(C(=O)N2CCN(c3ccc([N+](=O)[O-])c(NCc4ccco4)c3)CC2)cc1,"inconclusive: 12.6 µM [inhibitor, partial curve, poor fit]"
3,CCn1c(-c2csc3c2CCCC3)n[nH]c1=S,inactive
4,CCOc1ccc(-n2c(C)nc3cc(C(=O)NCc4ccc(C)cc4)ccc32)cc1,inactive
5,CCOc1ccc2c(c1)c(=O)c(C(=O)c1ccc3c(c1)OCO3)cn2Cc1cccc(F)c1,inactive
6,COc1cccc(COc2cc3ccccc3nc2C)c1,"inconclusive: 15.8 µM [inhibitor, partial curve]"
7,C[C@@H](C(=O)NCc1ccccc1)[C@@H]1C[C@@]1(C)[C@@H](NC(=O)OCc1ccccc1)c1ccccc1,"inconclusive: 0.0891 µM [inhibitor, full curve, poor fit]"
8,N#CCCN(C(=O)CSc1ccc2c(c1)OCCO2)c1ccccc1,"inconclusive: 39.8 µM [inhibitor, single point]"
9,N#Cc1ccc(/C=C\c2nccc3c2[nH]c2ccccc23)cc1,"inconclusive: 0.501 µM [inhibitor, full curve]"
10,O=C(NCCSc1ccc(Cl)cc1)c1ccc(CN2CCOCC2)cc1,"inconclusive: 44.7 µM [inhibitor, single point]"
11,CC(C)c1ccc(NC(=O)c2cnn3c(C(F)F)cc(-c4ccccc4)nc23)cc1,inactive
12,CC1(C)CC(=O)C2=C(C1)c1c(ccc3ccccc13)NC2c1cc([N+](=O)[O-])cc([N+](=O)[O-])c1O (configuration not stated),active: 11.2 µM
13,COc1ccc(-n2ncc(C(=O)NCCCN3CCCCC3)c2C2CCN(C(=O)OC(C)(C)C)CC2)cc1,inactive
14,CCSC1=C(C#N)C(c2ccc(OC)c(OC)c2)CC(=O)N1 (configuration not stated),inactive
15,COc1cc([N+](=O)[O-])cc2sc(NC(=O)c3c(F)cccc3F)nc12,"inconclusive: 20 µM [inhibitor, partial curve]"
16,Cc1c(NC(=O)C(F)(F)F)ccc2nc3c(=O)n(C)c(=O)n(C)c3nc12,"inconclusive: 28.2 µM [inhibitor, partial curve]"
17,Cc1sc(NC(=O)c2sc3nc4c(C)cccc4cc3c2N)c(C#N)c1C,active: 15.8 µM
18,CCCCN(Cc1ccco1)C(=O)c1cc2c(s1)-c1c(C)cccc1OC2,"inconclusive: 17.8 µM [inhibitor, partial curve]"
19,CCOC(=O)c1c(NC(=O)c2nn(C)cc2[N+](=O)[O-])sc(C)c1C,inactive
20,NS(=O)(=O)c1ccc(CCNc2nc3c(-c4cccc(F)c4)nnn3c3ccccc23)cc1,"inconclusive: 28.2 µM [activator, partial curve]"
21,CC(=O)NC1=NC(=O)/C(=C/c2cn(C(C)=O)nc2-c2ccccc2)S1,active: 28.2 µM
22,CCc1ccccc1NC(=O)Cn1nnc(C(=O)Nc2ccc(OC)c(OC)c2)c1N,"inconclusive: 35.5 µM [inhibitor, single point]"
23,Cc1cc(C)n2nc(C(=O)OCC(=O)Nc3ccc4c(c3)OCO4)nc2n1,inactive

row,Compound,Potency
1,O=C(OCC(=O)N1CCN(C(=O)c2ccco2)CC1)c1sc2ccccc2c1Cl,"inconclusive: 44.7 µM [inhibitor, single point]"
2,Cc1ccsc1/C=N/n1c(-c2cc(-c3ccccc3)n[nH]2)n[nH]c1=S,"inconclusive: 17.8 µM [inhibitor, partial curve, poor fit]"
3,CCOc1ccc(-c2cc(CCCC(=O)NCCc3ccc(OC)c(OC)c3)no2)cc1,"inconclusive: 1 µM [inhibitor, full curve, poor fit]"
4,Cc1cc(C(=O)CN2C(=O)NC3(CCCc4sccc43)C2=O)c(C)n1-c1ccccc1 (configuration not stated),"inconclusive: 10 µM [inhibitor, partial curve]"
5,CNc1ccccc1C(C)(C)c1cc(-c2cccc([N+](=O)[O-])c2)no1,"inconclusive: 14.1 µM [inhibitor, partial curve]"
6,CCOC(=O)N1CCC(NC(=O)c2cnn(-c3ccc(C)cc3)c2C2CCN(C(=O)OC(C)(C)C)CC2)CC1,inactive
7,CCC(Sc1ncnc2sc3c(c12)CCCC3)C(=O)OCC(C)C (configuration not stated),"inconclusive: 44.7 µM [inhibitor, single point]"
8,N#C/C(=C\c1ccc(N2CCCCC2)o1)C(=O)Nc1cccc(Br)c1,"inconclusive: 8.91 µM [inhibitor, single point]"
9,COc1cc(/C=N/NC(=O)c2ccc(C)nc2)cc([N+](=O)[O-])c1O,"inconclusive: 12.6 µM [inhibitor, partial curve]"
10,Fc1ccccc1-c1csc(=Nc2cccnc2)n1CCCn1ccnc1,"inconclusive: 15.8 µM [inhibitor, partial curve]"
11,COc1cccc(NC(=S)/C(=C(\[O-])c2ccc(C)c([N+](=O)[O-])c2)[n+]2ccccc2)c1,"inconclusive: 17.8 µM [inhibitor, partial curve]"
12,COC(=O)c1nn(-c2ccc(OC)cc2)c(=O)c2c(N)sc(C)c12,"inconclusive: 28.2 µM [inhibitor, partial curve]"
13,O=C(O)COc1ccccc1C1Nc2ccccc2-c2nnc(SCc3ccc(Cl)cc3)nc2O1 (configuration not stated),"inconclusive: 17.8 µM [inhibitor, partial curve]"
14,Cc1ccc2c(c1)COc1c3ccc(C(=O)N4CCCCC4)cc3nn1-2,"inconclusive: 0.794 µM [inhibitor, full curve]"
15,Cc1ccc(OCC(=O)N/N=C\c2cn(C)c3ccccc23)c([N+](=O)[O-])c1,"inconclusive: 10 µM [inhibitor, partial curve]"
16,Cc1ccc(-c2c3c(nc4sc(C(N)=O)c(N)c24)CCCC3)o1,"inconclusive: 25.1 µM [inhibitor, partial curve]"
17,Cc1cccc(C=Nc2ccc3c4c(cccc24)CC3)c1O,"inconclusive: 28.2 µM [inhibitor, partial curve]"
18,CCCCCn1c(=O)c(C(=O)c2ccccc2)nc2ccccc21,inactive
19,O=C(NCc1cccc(Cl)c1)c1ccc2c(Cl)c3c(nc2c1)CCCC3,inactive
20,Cc1cc(C)c(C(=O)C[n+]2cccc(C(N)=O)c2)c(C)c1,"inconclusive: 3.16 µM [inhibitor, partial curve, poor fit]"
21,CC(C)C(=O)Nc1cccc(NC(=S)NC(=O)c2ccc(Cl)cc2)c1,"inconclusive: 25.1 µM [inhibitor, single point]"
